# A collection of fitness landscapes (doi:10.1016/j.celrep.2020.107928)
# The full ranking holds about 81,000 sequences; the median of “one-hybrid fitness for binding parS DNA” is about -0.17, and the highest 2% start at about 0.51. The list shows a part of the results.
# B1: Caulobacter ParB omega fusion; a variant is named by its letters at X, in order, B8GW30 (parent)
# chain: MESVVVGEPGMSEGRRGLGRGLSALLGEVDAAPAQAPGEQLGGSREAPIEILQRNPDQPRRTFREEDLEDLSNSIREKGVLQPILVRPSPDTAGEYQIVAGERAWRAAQRAGLKTVPIMVRELDDLAVLEIGIIENVQRADLNVLEEALSYKVLMEKFERTQENIAQTIGKSXSHVANXMRLLXLPDEVQSYLVSGELTAXHARAIAAAADPVALAKQIIEGGLSVRETEALARKAPNLSAGKSKGGRPPRVKDTDTQALESDLSSVLGLDVSIDHRGSTGTLTITYATLEQLDDLCNRLTRGI
# Variants of: B1
# Assay: one-hybrid fitness for binding parS DNA (scaled: cognate 1, non-cognate 0); higher = stronger binding
# Conditions: with parS DNA site
# In short: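 Fitness here means the log change in variant-to-wild-type read ratio between plasmids sequenced before and after selection. That scale was set so cognate equals 1 and non-cognate equals 0. The selection was a bacterial one-hybrid screen of Caulobacter ParB libraries, four specificity codons randomised, in E. coli USO carrying a HIS3 reporter with the site 19 bp from the promoter, grown 48 hours at 37°C on M9-minus-histidine with 0.1 mM IPTG and 5 mM 3-AT.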
row,Variant,one-hybrid fitness for binding parS DNA
1,CNTL,≤ 0.2
2,WLRG,≤ 0.2
3,GDPS,≤ 0.2
4,QFPG,≤ 0.2
5,TVTK,≤ 0.2
6,ESLK,≤ 0.2
7,QHVR,≤ 0.2
8,RDQQ,≤ 0.2
9,VTKV,≤ 0.2
10,WLQG,≤ 0.2
11,WQLK,≤ 0.2
12,FRRV,≤ 0.2
13,HSSI,≤ 0.2
14,QRLG,≤ 0.2
15,VGTT,≤ 0.2
16,CGAI,≤ 0.2
17,TSHP,≤ 0.2
18,EPGR,≤ 0.2
19,CPRY,≤ 0.2
20,KPHQ,≤ 0.2
21,MRVV,≤ 0.2
22,VRYV,≤ 0.2
23,IMVT,≤ 0.2
24,ATIY,≤ 0.2

row,Variant,one-hybrid fitness for binding parS DNA
1,IKEC,≤ 0.2
2,GASA,≤ 0.2
3,AASL,≤ 0.2
4,HTCI,≤ 0.2
5,RKLC,0.921
6,TDLV,≤ 0.2
7,PGLH,≤ 0.2
8,LKVR,≤ 0.2
9,MYNS,≤ 0.2
10,RCQL,≤ 0.2
11,GYAY,≤ 0.2
12,VHRY,≤ 0.2
13,NLQD,≤ 0.2
14,TCTA,≤ 0.2
15,NAVS,≤ 0.2
16,SPKQ,≤ 0.2
17,PRVW,≤ 0.2
18,ETHH,≤ 0.2
19,EILP,0.345
20,RFIT,0.508
21,RDAP,≤ 0.2
22,PMPY,≤ 0.2
23,RLYI,≤ 0.2
24,CFMS,≤ 0.2

row,Variant,one-hybrid fitness for binding parS DNA
1,RLTY,0.48
2,YIRW,≤ 0.2
3,EDST,≤ 0.2
4,YPGR,≤ 0.2
5,SKGR,≤ 0.2
6,YSRA,≤ 0.2
7,ICAY,≤ 0.2
8,QRSL,≤ 0.2
9,HQPT,≤ 0.2
10,RVGD,≤ 0.2
11,PCRE,≤ 0.2
12,KKTG,≤ 0.2
13,HVTF,≤ 0.2
14,PHLE,≤ 0.2
15,EDEN,≤ 0.2
16,ARVI,≤ 0.2
17,SVWS,≤ 0.2
18,KLKK,≤ 0.2
19,SRHH,≤ 0.2
20,NSLL,≤ 0.2
21,RQFN,0.363
22,RPPV,≤ 0.2
23,DRGF,≤ 0.2
24,TQWG,≤ 0.2

row,Variant,one-hybrid fitness for binding parS DNA
1,SRNW,≤ 0.2
2,IDQT,≤ 0.2
3,DCTT,≤ 0.2
4,LMHI,≤ 0.2
5,SFCG,≤ 0.2
6,PSKN,≤ 0.2
7,QFST,≤ 0.2
8,RMYK,≤ 0.2
9,VGTE,≤ 0.2
10,GECK,0.213
11,CRFE,≤ 0.2
12,TTDD,≤ 0.2
13,QRLT,≤ 0.2
14,MRHL,≤ 0.2
15,KMCF,≤ 0.2
16,VYTL,≤ 0.2
17,RLSG,1.01
18,PVDS,≤ 0.2
19,WPLR,≤ 0.2
20,STFL,≤ 0.2
21,QNSW,≤ 0.2
22,HNMG,≤ 0.2
23,WSTV,≤ 0.2
24,HYHG,≤ 0.2

row,Variant,one-hybrid fitness for binding parS DNA
1,GAYC,≤ 0.2
2,TLSQ,≤ 0.2
3,QAAR,≤ 0.2
4,RKWL,≤ 0.2
5,MFAA,≤ 0.2
6,LLYL,≤ 0.2
7,GKMC,≤ 0.2
8,LCSC,≤ 0.2
9,DAKS,≤ 0.2
10,ARAY,≤ 0.2
11,CYKM,≤ 0.2
12,HRYH,≤ 0.2
13,PEMT,≤ 0.2
14,TSPT,≤ 0.2
15,ADAA,≤ 0.2
16,WFKL,≤ 0.2
17,QTDT,≤ 0.2
18,EVTL,≤ 0.2
19,FPRR,≤ 0.2
20,ADER,≤ 0.2
21,EACG,≤ 0.2
22,TSKN,≤ 0.2
23,FMPT,≤ 0.2
24,FPDT,≤ 0.2

row,Variant,one-hybrid fitness for binding parS DNA
1,QTMP,≤ 0.2
2,GSLG,≤ 0.2
3,SAGT,≤ 0.2
4,AVCG,≤ 0.2
5,CEPT,≤ 0.2
6,THLW,≤ 0.2
7,LGHW,≤ 0.2
8,LFDT,≤ 0.2
9,MMRE,≤ 0.2
10,RYKD,≤ 0.2
11,GESS,≤ 0.2
12,QHYG,≤ 0.2
13,GWLY,≤ 0.2
14,RYGS,0.901
15,TAGF,≤ 0.2
16,CQDG,≤ 0.2
17,HNVR,≤ 0.2
18,RRLL,≤ 0.2
19,QELF,≤ 0.2
20,RMIT,0.752
21,RARY,0.552
22,RAIS,0.942
23,TSEM,≤ 0.2
24,FLLC,≤ 0.2

row,Variant,one-hybrid fitness for binding parS DNA
1,GPSD,≤ 0.2
2,CIVR,≤ 0.2
3,FWKT,≤ 0.2
4,PDWG,≤ 0.2
5,LKPH,0.236
6,IPVR,≤ 0.2
7,CWLY,≤ 0.2
8,FTTI,≤ 0.2
9,QMYS,≤ 0.2
10,WSSF,≤ 0.2
11,PPTP,≤ 0.2
12,MIDS,≤ 0.2
13,CADR,≤ 0.2
14,PSDW,≤ 0.2
15,FAKR,≤ 0.2
16,AEEG,≤ 0.2
17,DVLN,≤ 0.2
18,SQPA,≤ 0.2
19,PPKA,≤ 0.2
20,AHKR,≤ 0.2
21,THSW,≤ 0.2
22,IVKE,≤ 0.2
23,SLNK,≤ 0.2
24,HSHI,≤ 0.2

row,Variant,one-hybrid fitness for binding parS DNA
1,PVEL,≤ 0.2
2,VRSF,≤ 0.2
3,WIWS,≤ 0.2
4,KWVS,≤ 0.2
5,STHK,≤ 0.2
6,PPSK,≤ 0.2
7,QLDV,≤ 0.2
8,RMCL,≤ 0.2
9,PVTV,≤ 0.2
10,QVSY,≤ 0.2
11,PNPN,≤ 0.2
12,RTGQ,≤ 0.2
13,QKKC,≤ 0.2
14,SICV,≤ 0.2
15,GWAK,≤ 0.2
16,LLQG,≤ 0.2
17,ASKV,≤ 0.2
18,LWWR,≤ 0.2
19,FVNS,≤ 0.2
20,DVRI,≤ 0.2
21,HIDW,≤ 0.2
22,FTPR,≤ 0.2
23,RYAQ,≤ 0.2
24,PRNH,≤ 0.2

row,Variant,one-hybrid fitness for binding parS DNA
1,AGPL,≤ 0.2
2,CRRA,≤ 0.2
3,MQHL,≤ 0.2
4,DPYG,≤ 0.2
5,RQKN,0.433
6,SMHT,≤ 0.2
7,PLSG,≤ 0.2
8,EQAA,≤ 0.2
9,TASS,≤ 0.2
10,HSPE,≤ 0.2
11,QNCS,≤ 0.2
12,AITY,≤ 0.2
13,QYMD,≤ 0.2
14,KSAV,≤ 0.2
15,NTFT,≤ 0.2
16,RAYQ,≤ 0.2
17,WADM,≤ 0.2
18,FLRS,≤ 0.2
19,TYVL,≤ 0.2
20,YKCS,≤ 0.2
21,VTQY,≤ 0.2
22,CFPR,≤ 0.2
23,RMII,≤ 0.2
24,HPAE,≤ 0.2

row,Variant,one-hybrid fitness for binding parS DNA
1,REWS,0.218
2,EHLG,≤ 0.2
3,LRAE,≤ 0.2
4,KYRP,≤ 0.2
5,GHSC,≤ 0.2
6,IDTS,≤ 0.2
7,IRCN,≤ 0.2
8,QTHD,≤ 0.2
9,RQPY,≤ 0.2
10,ITAV,≤ 0.2
11,CSGA,≤ 0.2
12,AWRR,≤ 0.2
13,TILI,≤ 0.2
14,KRKK,≤ 0.2
15,EWSS,≤ 0.2
16,PPPE,≤ 0.2
17,HGDT,≤ 0.2
18,CRNY,≤ 0.2
19,RKDI,≤ 0.2
20,SKQS,≤ 0.2
21,LVMV,≤ 0.2
22,WMRG,≤ 0.2
23,LYTM,≤ 0.2
24,DAID,≤ 0.2

row,Variant,one-hybrid fitness for binding parS DNA
1,ACSL,≤ 0.2
2,DCGT,≤ 0.2
3,LKYS,≤ 0.2
4,YTAE,≤ 0.2
5,VCRR,≤ 0.2
6,HNSS,≤ 0.2
7,DCPF,≤ 0.2
8,VPPK,≤ 0.2
9,WPQD,≤ 0.2
10,DRSS,≤ 0.2
11,TLGC,≤ 0.2
12,SYSR,≤ 0.2
13,KQRR,≤ 0.2
14,LDSL,≤ 0.2
15,QRFK,≤ 0.2
16,TGRS,≤ 0.2
17,RCTS,0.984
18,QLKY,≤ 0.2
19,SMIE,≤ 0.2
20,NSHY,≤ 0.2
21,YMAS,≤ 0.2
22,YLRL,≤ 0.2
23,KKNG,≤ 0.2
24,FPPL,≤ 0.2

row,Variant,one-hybrid fitness for binding parS DNA
1,GGEG,≤ 0.2
2,ECGC,≤ 0.2
3,FCFG,≤ 0.2
4,INND,≤ 0.2
5,LKPC,≤ 0.2
6,PYWE,≤ 0.2
7,PQAD,≤ 0.2
8,QRME,≤ 0.2
9,LDAV,≤ 0.2
10,CPHC,≤ 0.2
11,RDIN,≤ 0.2
12,QAYA,≤ 0.2
13,VNTL,≤ 0.2
14,ATDE,≤ 0.2
15,TGFL,≤ 0.2
16,HWMT,≤ 0.2
17,MMMK,≤ 0.2
18,KTLN,≤ 0.2
19,HNVV,≤ 0.2
20,YESM,≤ 0.2
21,QESW,≤ 0.2
22,DNWT,≤ 0.2
23,MCMC,≤ 0.2
24,PNWY,≤ 0.2

row,Variant,one-hybrid fitness for binding parS DNA
1,CRST,≤ 0.2
2,CQQS,≤ 0.2
3,RAWT,0.809
4,ICWR,≤ 0.2
5,GRKF,≤ 0.2
6,GEGT,≤ 0.2
7,LGIG,≤ 0.2
8,LMGS,≤ 0.2
9,QWPT,≤ 0.2
10,RGSV,≤ 0.2
11,QTFY,≤ 0.2
12,CRER,≤ 0.2
13,MVDQ,≤ 0.2
14,NHMW,≤ 0.2
15,VCTA,≤ 0.2
16,HSYM,≤ 0.2
17,FFLW,≤ 0.2
18,RMLC,0.983
